In paper PMC6926458 one finds stoichiometry N data, which are given here for one substance.

This test addresses Megathura crenulata (keyhole limpet) hemocyanin, native (Megathura crenulata) (UniProt Q10583). Put plainly: negative-stain transmission electron microscopy; hemocyanins 0.6 mg/ml on parlodion-coated copper grids, 1-2% uranyl acetate; didecamers, decamers and dissociated structures counted in about 20 images.

For the substance “Megathura crenulata (keyhole limpet) hemocyanin, native, Q10583 17-3414; Q10584 20-3421”, the stoichiometry N (commonly a count of units in the complex or per binding partner) was 20.
